94 sequences from the supplement of paper PMC3334620 can be followed below.

Whole data set: some 33,000 sequences, median “E-score (-0.5 to 0.5)” near -0.035, cut for the highest 2% near 0.34. This is one part of the list.

The assay has as its target T1, Mot3 (UniProt P54785).
T1 sequence: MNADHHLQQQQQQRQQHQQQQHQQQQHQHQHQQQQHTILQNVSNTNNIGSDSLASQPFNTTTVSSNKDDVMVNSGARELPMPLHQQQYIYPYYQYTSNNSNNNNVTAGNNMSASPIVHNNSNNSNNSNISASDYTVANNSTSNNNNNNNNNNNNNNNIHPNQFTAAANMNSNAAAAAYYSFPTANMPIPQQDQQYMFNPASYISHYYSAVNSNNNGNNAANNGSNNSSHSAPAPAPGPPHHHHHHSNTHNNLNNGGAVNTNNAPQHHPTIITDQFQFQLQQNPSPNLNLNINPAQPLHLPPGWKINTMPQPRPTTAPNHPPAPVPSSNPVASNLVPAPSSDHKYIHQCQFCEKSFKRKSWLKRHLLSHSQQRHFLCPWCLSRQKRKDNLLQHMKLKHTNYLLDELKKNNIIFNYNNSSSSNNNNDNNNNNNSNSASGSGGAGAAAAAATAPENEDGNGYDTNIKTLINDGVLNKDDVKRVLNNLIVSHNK
Nature of the assay: PBM E-score (8-mer binding enrichment) (E-score (-0.5 to 0.5)); higher = stronger / more preferred TF binding; most listed sequences are background and not binding sites. As to conditions: protein concentration: 200 nM; construct: GST-full length. Put shortly:
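Universal all-10-mer Agilent arrays, double-stranded by primer extension on fresh or once-stripped slides, were probed with about 100-200 nM GST-tagged yeast transcription factors made by PURExpress. Fluorescent anti-GST detected bound protein, and masliner normalised the scans. E-scores from the Universal PBM Analysis Suite were given to each ungapped eight-base word pooled with its reverse complement.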
For AATTAGAG, the “PBM E-score” value was -0.0584.
As to AAAAAGCT, the “PBM E-score” value is -0.177.
Take CTCACTAC: the “PBM E-score” value was -0.0176.
To ATATATGG belongs 0.165; to ACCATATC, -0.208.
To CGAGGGCG belongs -0.276; to ACACAGAC, 0.237.
With AGGTTAAA the figure was 0.142.
ATTCTCAA: the “PBM E-score” value turned out to be 0.11.
As to AGTACATA, the “PBM E-score” value stood at 0.362.
With GCAGTTCC, the “PBM E-score” value came to 0.0335.
With CAGCTTGA, the “PBM E-score” value is -0.121.
With AGTCTAAG the figure was -0.0577; with CGCTCCCC, -0.197.
Consider TCCTCAAA, for which the “PBM E-score” value is 0.0707.
As to AGAATATA, the “PBM E-score” value amounted to 0.0352.
With AACGGGCA the figure was 0.0168.
AATGCATC: the “PBM E-score” value was -0.106.
For the sequence AAATGCTA, the “PBM E-score” value is 0.063.
Turning to TATGCAAA, the “PBM E-score” value turned out to be 0.0598.
Regarding GGCCGACC, the “PBM E-score” value was -0.307.
With ACGATTCA the figure was -0.163; with AGGGTAAT, -0.0805; with CAGTGTCA, 0.0984.
With CCACGCTA the figure was -0.194; with AGCCTCCG, -0.0828; with TACATAGA, 0.357.
In the case of CTCTACGA, the “PBM E-score” value is 0.0109.
Turning to ACGCAAGA, the “PBM E-score” value is -0.0148.
To ATGGAAAG belongs 0.0416; to GCAACCGC, -0.0326.
To AGAGGGGA belongs -0.331; to GTCTCACA, -0.0936; to AACCGGCG, 0.0787.
With GATTGGAA the figure was -0.00014.
As to GATACTAA, the “PBM E-score” value was found to be 0.0182.
For AAGTCATA, the “PBM E-score” value is -0.0524.
As to CCGTTTCA, the “PBM E-score” value is -0.123.
With ACAGGTTG the figure was 0.181.
To CGCATCTC belongs -0.0332.
To AGCACTCG belongs -0.348; to AACTTTGA, -0.016; to AGGAAAGA, 0.282.
For the sequence ACCCGTCG, the “PBM E-score” value is -0.0764.
To AGTCCTGG belongs -0.278; to CCATCCTC, -0.233.
As to CAAAGATG, the “PBM E-score” value is 0.0103.
Turning to TCCTCGCA, the “PBM E-score” value was -0.141.
With CATTTCGG the figure was -0.063; with CTGCTGCA, -0.0263; with CGCAGAAC, 0.012.
Turning to CAGCGACA, the “PBM E-score” value was -0.0471.
As to CGCGGAAA, the “PBM E-score” value is -0.07.
Consider GAAACACA, for which the “PBM E-score” value came to 0.233.
With GACCCATC the figure was -0.217; with AGTTTGAC, 0.161; with ATCAAGAC, 0.0321.
In the case of ACGGATAA, the “PBM E-score” value is -0.0413.
CCACTTCC: the “PBM E-score” value was -0.116.
To GCCTCAAC belongs 0.109; to TAATGCCA, 0.121; to GAATCAAA, -0.0706.
In the case of ATACTTAC, the “PBM E-score” value worked out at 0.242.
Take CGATGCAG: the “PBM E-score” value was -0.323.
Turning to ACTTCCTG, the “PBM E-score” value is -0.0437.
With TCTATCCA the figure was -0.12; with AGTTGTCA, -0.0144; with TAGACACA, 0.105.
With ACTTATCA the figure was -0.0722.
ATAAGGGG: the “PBM E-score” value is -0.0678.
On to AGGTGTTC, for which the “PBM E-score” value is 0.139.
As for CCTACCGC, the “PBM E-score” value was 0.0945.
With AGCTATTG the figure was 0.0615; with CAGGGGGG, -0.214.
With GCGATATA the figure was -0.0247.
With AAGAAGAA the figure was 0.172; with CGGAACAC, 0.0144; with AGTCGTTG, -0.195.
In the case of ATACGCGC, the “PBM E-score” value was found to be 0.236.
As to CAGAGGGA, the “PBM E-score” value was -0.123.
For ATGTCGCA, the “PBM E-score” value was determined as 0.0417.
To GAGATGGC belongs -0.0348.
With GTCCAGAA, the “PBM E-score” value is 0.097.
In the case of AAAATGGC, the “PBM E-score” value is 0.0705.
With CACAGTTC the figure was 0.00017.
In the case of CACTTTCG, the “PBM E-score” value is -0.0675.
For CGTCACCC, the “PBM E-score” value was -0.109.
With CATAGCGA the figure was 0.0868; with GTCCCTGA, -0.064; with AGGTGGGG, -0.125.
With CTAGGAAA the figure was 0.246; with AGGGACGA, -0.113.
To CAAGTAGA belongs -0.0203.
In the case of CCGGCAAC, the “PBM E-score” value was -0.223.
